Data on 109 sequences can be found in the supplement of paper PMC4166925.

± gives the standard deviation of the averaged measurements. The full ranking holds about 33,000 sequences; the median of “E-score (dimensionless, -0.5 to 0.5)” is about -0.046, and the highest 2% start at about 0.36. The list shows a part of the results.

The test system of the assay is T1, SpTbr T-box DNA-binding domain (GST fusion).
T1 sequence: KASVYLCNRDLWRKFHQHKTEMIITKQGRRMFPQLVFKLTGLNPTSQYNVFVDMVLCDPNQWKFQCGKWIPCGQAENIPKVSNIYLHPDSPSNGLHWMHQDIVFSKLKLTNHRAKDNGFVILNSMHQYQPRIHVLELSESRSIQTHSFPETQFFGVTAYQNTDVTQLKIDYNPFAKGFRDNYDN
Kind of assay: PBM E-score of 8-mer (E-score (dimensionless, -0.5 to 0.5)); Tbr is Tbrain of the sea star Patiria miniata (Pm) or the sea urchin Strongylocentrotus purpuratus (Sp); higher = stronger binding preference; most listed sequences are background and not binding sites. The following applies: the construct has about 5 more residues each side. The essentials:
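Each ungapped 8-mer received an enrichment E-score from the Universal PBM Analysis Suite, averaged over duplicate arrays. The proteins were Tbr T-box DNA-binding domains, covering the whole T-box plus about five flanking residues, fused to GST and expressed in BL21 E. coli at 20 °C before glutathione affinity purification. Universal Agilent oligonucleotide arrays were made double-stranded by primer extension and incubated with 200 nM protein in PBS (pH 7.5). The arrays were then scanned and quantified, and every 8-mer was scored from probe intensities.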
With ACTGTTTA, the “PBM E-score of 8-mer” value is -0.023 ± 0.049.
As to AACATAAG, the “PBM E-score of 8-mer” value was -0.0422 ± 0.07.
Take CACTCAGG: the “PBM E-score of 8-mer” value was -0.0871 ± 0.041.
Take AACCCACC: the “PBM E-score of 8-mer” value was -0.164 ± 0.0065.
With GACACCGA, the “PBM E-score of 8-mer” value came to 0.293 ± 0.0048.
As for AGCAGCTA, the “PBM E-score of 8-mer” value amounted to 0.04 ± 0.044.
CCAATCGA: the “PBM E-score of 8-mer” value was -0.0623 ± 0.012.
Turning to GATACTTA, the “PBM E-score of 8-mer” value was -0.137 ± 0.011.
With TGAACTCA, the “PBM E-score of 8-mer” value was -0.0862 ± 0.056.
In the case of GCCCTGAA, the “PBM E-score of 8-mer” value is -0.173 ± 0.069.
As to AATCGCTA, the “PBM E-score of 8-mer” value was found to be 0.0759 ± 0.0071.
As for CCTAAAGC, the “PBM E-score of 8-mer” value is -0.194 ± 0.082.
For ACCCAACG, the “PBM E-score of 8-mer” value was 0.0224 ± 0.064.
The figure for ATCCATAC is -0.383 ± 0.0073.
Regarding GGGAGTAC, the “PBM E-score of 8-mer” value is -0.07519 ± 0.00044.
Turning to GGGTAGAA, the “PBM E-score of 8-mer” value was -0.074 ± 0.055.
The figure for ATGAAATA is -0.0629 ± 0.043; for CTTCAACC it is -0.0664 ± 0.065; for GCAGGCCC it is -0.275 ± 0.011.
For the sequence ATATGGAC, the “PBM E-score of 8-mer” value is -0.255 ± 0.035.
As for CCCATTCC, the “PBM E-score of 8-mer” value is -0.172 ± 0.028.
The figure for AAACTCCC is -0.119 ± 0.057; for AAGATTAG it is -0.159 ± 0.043.
In the case of GATGTCCC, the “PBM E-score of 8-mer” value was -0.211 ± 0.064.
Under ATTTTCGA stands -0.223 ± 0.009; under GCCTTAGC, 0.154 ± 0.043.
Take GTGGTCTA: the “PBM E-score of 8-mer” value was -0.228 ± 0.012.
With AACTAGAA, the “PBM E-score of 8-mer” value is -0.0985 ± 0.021.
Regarding GTCAGGAC, the “PBM E-score of 8-mer” value worked out at 0.064 ± 0.017.
The figure for CCTAACCC is -0.131 ± 0.035.
As for ACGATGCT, the “PBM E-score of 8-mer” value amounted to 0.00838 ± 0.043.
In the case of AGCGCCCG, the “PBM E-score of 8-mer” value was 0.0858 ± 0.0036.
The figure for ACACCGTC is 0.297 ± 0.01.
On to CTAGTAGA, for which the “PBM E-score of 8-mer” value was -0.0229 ± 0.019.
For CACGGCCC, the “PBM E-score of 8-mer” value is -0.00754 ± 0.068.
The figure for CTTGGGAA is -0.0381 ± 0.048.
As for AATAGAAC, the “PBM E-score of 8-mer” value was -0.0992 ± 0.11.
As for CAGTTGAC, the “PBM E-score of 8-mer” value came to 0.249 ± 0.051.
As to CCGCGCCA, the “PBM E-score of 8-mer” value came to 0.0588 ± 0.039.
The figure for GCGTTGAA is 0.136 ± 0.018; for CACGTTCG it is 0.172 ± 0.046.
The figure for CTAGGAGA is -0.129 ± 0.024; for AACCGCGT it is -0.085 ± 0.07.
As to ATACAAAC, the “PBM E-score of 8-mer” value is -0.0839 ± 0.019.
For GTACTTAA, the “PBM E-score of 8-mer” value is -0.0822 ± 0.049.
For the sequence CACAGGTC, the “PBM E-score of 8-mer” value turned out to be 0.198 ± 0.045.
Take ATAGGCCG: the “PBM E-score of 8-mer” value was -0.143 ± 0.01.
Take GAATTGGA: the “PBM E-score of 8-mer” value is 0.0696 ± 0.063.
As to CGTTGCCC, the “PBM E-score of 8-mer” value is -0.118 ± 0.085.
On to CCCCTAAG, for which the “PBM E-score of 8-mer” value is -0.17 ± 0.067.
Take CACGTAGC: the “PBM E-score of 8-mer” value worked out at 0.104 ± 0.01.
As to CATGAACC, the “PBM E-score of 8-mer” value was -0.0306 ± 0.054.
As to TGACTCCA, the “PBM E-score of 8-mer” value is -0.143 ± 0.087.
On to TTAATAAA, for which the “PBM E-score of 8-mer” value was -0.296 ± 0.074.
Consider GTAATGGA, for which the “PBM E-score of 8-mer” value is -0.21 ± 0.055.
With GACCATGC, the “PBM E-score of 8-mer” value is -0.0495 ± 0.057.
As to AAGACTTC, the “PBM E-score of 8-mer” value is -0.0418 ± 0.027.
In the case of ACTCCTGG, the “PBM E-score of 8-mer” value amounted to 0.189 ± 0.013.
Take CCGATACG: the “PBM E-score of 8-mer” value was -0.224 ± 0.0047.
Under CCGTCAGG stands 0.166 ± 0.042; under AGCCTGCC, 0.00934 ± 0.038.
In the case of GGCGCCGA, the “PBM E-score of 8-mer” value was found to be 0.145 ± 0.025.
As to AACGAACA, the “PBM E-score of 8-mer” value was -0.0638 ± 0.002.
For CAACGTCA, the “PBM E-score of 8-mer” value turned out to be 0.0949 ± 0.013.
As for TCCAAAAA, the “PBM E-score of 8-mer” value is -0.169 ± 0.0031.
Turning to GAGACCGA, the “PBM E-score of 8-mer” value was -0.0681 ± 0.039.
The figure for GCCTAGGC is -0.117 ± 0.01; for ACGTCTAG it is -0.166 ± 0.072.
For CCTGGCTC, the “PBM E-score of 8-mer” value was -0.0466 ± 0.012.
In the case of AGTGACCG, the “PBM E-score of 8-mer” value amounted to 0.103 ± 0.0031.
For ACTCACGG, the “PBM E-score of 8-mer” value turned out to be 0.061 ± 0.057.
The figure for ACCGTGGA is 0.11 ± 0.02.
As for CAGTAAGA, the “PBM E-score of 8-mer” value was -0.207 ± 0.047.
Consider CCGACGAA, for which the “PBM E-score of 8-mer” value stood at 0.0782 ± 0.019.
As for AGTGGTGC, the “PBM E-score of 8-mer” value is 0.178 ± 0.005.
On to AGGTGAGC, for which the “PBM E-score of 8-mer” value is 0.2602 ± 0.00092.
ACCCCCTG: the “PBM E-score of 8-mer” value came to 0.0826 ± 0.062.
The figure for GCCTGACC is -0.0747 ± 0.025; for GTCAACCA it is 0.0318 ± 0.012.
Under ATGACGAC stands 0.143 ± 0.035; under ACTAAACA, 0.00628 ± 0.024.
With CGTCATTA, the “PBM E-score of 8-mer” value is -0.0133 ± 0.08.
For the sequence AACCAACA, the “PBM E-score of 8-mer” value is 0.0701 ± 0.037.
In the case of ATCATCCC, the “PBM E-score of 8-mer” value was -0.109 ± 0.0033.
Turning to CGTTTATC, the “PBM E-score of 8-mer” value turned out to be 0.102 ± 0.038.
As to ATAGTGGG, the “PBM E-score of 8-mer” value was -0.0426 ± 0.049.
For the sequence ACCACGCG, the “PBM E-score of 8-mer” value amounted to 0.162 ± 0.0086.
As for CGCGTGGA, the “PBM E-score of 8-mer” value was found to be 0.109 ± 0.06.
The figure for CGTGGCAG is 0.0343 ± 0.083; for GTTAGGGA it is -0.0922 ± 0.023.
As for AGCATTTG, the “PBM E-score of 8-mer” value was -0.0807 ± 0.036.
In the case of AAAGAAGG, the “PBM E-score of 8-mer” value is -0.217 ± 0.067.
Take GCGAAAGC: the “PBM E-score of 8-mer” value is 0.158 ± 0.02.
AGTACAGG: the “PBM E-score of 8-mer” value was -0.0815 ± 0.027.
As to ATAATGTC, the “PBM E-score of 8-mer” value is -0.19 ± 0.052.
Consider CCGTAACA, for which the “PBM E-score of 8-mer” value worked out at 0.182 ± 0.035.
The figure for CGGCTGGC is -0.0499 ± 0.019; for ACTTCCAA it is -0.225 ± 0.051.
In the case of ATGCACAT, the “PBM E-score of 8-mer” value was -0.0918 ± 0.012.
Consider ATTTGTCA, for which the “PBM E-score of 8-mer” value came out at 0.216 ± 0.09.
The figure for ATGTAAGA is -0.246 ± 0.0067; for ACACGACG it is 0.0924 ± 0.0099.
Turning to AATCAAGT, the “PBM E-score of 8-mer” value was -0.126 ± 0.041.
As to AACTATGT, the “PBM E-score of 8-mer” value was determined as 0.131 ± 0.026.
In the case of ACTAGAAT, the “PBM E-score of 8-mer” value is -0.192 ± 0.017.
On to CCGGGGAG, for which the “PBM E-score of 8-mer” value is -0.189 ± 0.0083.
With ACCAGGGA, the “PBM E-score of 8-mer” value was -0.0386 ± 0.15.
With GTGACTCA, the “PBM E-score of 8-mer” value came out at 0.121 ± 0.012.
With ACCACCTG, the “PBM E-score of 8-mer” value came out at 0.224 ± 0.037.
